Test results from ChEMBL document CHEMBL1201862, “PubChem BioAssay data set” (2004).
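96-well plates; 48 h exposure; 5 concentrations. Endpoints by linear interpolation between flanking doses. Not reached: highest tested concentration assigned. Abbreviation: GI50, concentration required for 50% inhibition of growth.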 Active and inactive are the calls of the source. Rule as the data show it: active = GI50 up to about 1.1 µM and inactive = higher.

Test system: NCI-H322M
Assay: DTP human tumour cell line panel, 48 h

**Q.** With `CN(C)CCNc1ccc2c(=O)n(CCN(C)C)c(=O)n3c4ccc(N)cc4c(=O)c1c23` as the compound, how does the GI50 read?
**A.** The GI50 was active: < 0.0191 µM.

**Q.** Which GI50 does the source give for `Nc1ccc(-c2nc3ccccc3s2)cc1Cl` here?
**A.** The GI50 was inactive: 84.5 µM.

**Q.** For `N#CNC(=N)Nc1ccc(Cl)cc1`, which GI50 is on record?
**A.** Its GI50 is inactive: > 100 µM.

**Q.** With `CN1CCc2nc(N)nc(-c3nc(N)nc4c3CN(C)CC4)c2C1` as the compound, how does the GI50 read?
**A.** Its GI50 is inactive: > 100 µM.

**Q.** `CN(C)CCCNc1c(C#N)[n+]([O-])c2cc(Cl)ccc2[n+]1[O-]` was tested. Which GI50 did it give?
**A.** The GI50 was inactive: 23.2 µM.

**Q.** `Brc1ccc2c(-c3csc(-c4c[nH]c5ccccc45)n3)c[nH]c2c1` was tested. Which GI50 did it give?
**A.** The GI50 was inactive: 16.7 µM.

**Q.** With `NC(CSC(c1ccccc1)(c1ccccc1)c1ccccc1)C(=O)O` (stereo not drawn) as the compound, how does the GI50 read?
**A.** Its GI50 is active: 0.944 µM.

**Q.** For `Cc1sc2nc(-c3cc([N+](=O)[O-])c(Cl)cc3Cl)c(/C=N/NC(=N)N)n2c1C`, which GI50 is on record?
**A.** Its GI50 is inactive: 15.7 µM.

**Q.** For `NC1=CN(Cc2ccccc2)C2=N/C(=C\c3ccccc3)C(=O)N12`, which GI50 is on record?
**A.** The GI50 was inactive: > 100 µM.

**Q.** With `CCCCCCCCCCCCCCCC(=O)Nc1ccn(C2CC(OP(=O)(O)OCC3OC(n4cc(F)c(=O)[nH]c4=O)CC3OC(C)=O)C(CO)O2)c(=O)n1` (stereo not drawn) as the compound, how does the GI50 read?
**A.** Its GI50 is inactive: 8.04 µM.

**Q.** How did the GI50 turn out when `COc1cc2c3c(c1)c1cc(OC)c(OC)cc1c[n+]3CC2` was run?
**A.** The GI50 was inactive: 7.03 µM.

**Q.** For `O=C1C[C@H]2CC3(CC[C@H]2CN1)OCCO3`, which GI50 is on record?
**A.** Its GI50 is inactive: > 100 µM.

**Q.** Which GI50 does the source give for `COC(=O)c1ccccc1/C=C1\Cc2ccc3c(c2C1=O)CCCC3` here?
**A.** Its GI50 is inactive: > 100 µM.

**Q.** With `C=C1C(=O)OC2CC3(CO3)C3C(O)C(O)CC3(C)CC12` (stereo not drawn) as the compound, how does the GI50 read?
**A.** Its GI50 is inactive: 49.8 µM.

**Q.** `Cc1ccccc1-n1c(=O)c2ncn(C3CCCO3)c2n(-c2ccccc2C)c1=S` (stereo not drawn) was tested. Which GI50 did it give?
**A.** Its GI50 is inactive: > 100 µM.

**Q.** With `COCc1cc2c(cc1/C=C/[N+](=O)[O-])OCO2` as the compound, how does the GI50 read?
**A.** Its GI50 is inactive: 15.7 µM.

**Q.** How did the GI50 turn out when `COC(=O)[C@](C)(Cc1ccccc1)NC(=O)[C@@H](C)N1[C@@H](c2ccccc2)COC1(C)C` was run?
**A.** The GI50 was inactive: > 100 µM.

**Q.** `c1ccc2c(c1)c1c3n2-c2cc(on2)C3CCC1` (stereo not drawn) was tested. Which GI50 did it give?
**A.** The GI50 was inactive: > 100 µM.

**Q.** For `C=C1CC[C@@H](C)[C@](C)(CCc2ccoc2)C/C=C\C=C/1C(=O)O`, which GI50 is on record?
**A.** The GI50 was inactive: 39.4 µM.

**Q.** With `CC(=O)OC1CCC2C(=CCC3C2(C)C(=O)CC2(C)C(C4(C)OC(C(C)C)=CC4=O)C(O)CC32C)C1(C)C` (stereo not drawn) as the compound, how does the GI50 read?
**A.** The GI50 was inactive: 50.1 µM.

**Q.** Which GI50 does the source give for `COc1ccccc1/C=N/N=C(\N)NO` here?
**A.** Its GI50 is inactive: 16.6 µM.

**Q.** Which GI50 does the source give for `O=C(CC(=O)Nc1ccccc1)N/N=C/c1cc(/N=N/c2ccc(Br)cc2)ccc1O` here?
**A.** Its GI50 is inactive: 3.48 µM.

**Q.** Which GI50 does the source give for `CN(C)C=C1C(=O)c2c(Br)sc(Br)c2C1=O` here?
**A.** The GI50 was inactive: 23.8 µM.

**Q.** For `CCN(CC)c1ccc(/N=N/c2ccc(-c3nc4cccnc4o3)cc2)cc1`, which GI50 is on record?
**A.** Its GI50 is inactive: > 100 µM.

**Q.** For `CN(C)CCCNC(=O)N/N=C/c1ccc([N+](=O)[O-])cc1`, which GI50 is on record?
**A.** The GI50 was inactive: 67.1 µM.

**Q.** With `CCSC1=N/C(=C\c2ccccc2O)C(Nc2ccc(C)cc2)=N1` as the compound, how does the GI50 read?
**A.** The GI50 was inactive: > 100 µM.

**Q.** How did the GI50 turn out when `CCCCCCCCCCCCCCCCc1c(C(=O)OC)[nH]c(=S)[nH]c1=O` was run?
**A.** Its GI50 is inactive: > 50 µM.

**Q.** For `O=C(CCN1CCCC1)CC(c1ccccc1)c1c(O)c2ccccc2oc1=O` (stereo not drawn), which GI50 is on record?
**A.** Its GI50 is inactive: > 100 µM.

**Q.** How did the GI50 turn out when `COc1ccc(-n2cnc3c(NC(C)(C)C(=O)O)ncnc32)cc1` was run?
**A.** Its GI50 is inactive: > 100 µM.

**Q.** How did the GI50 turn out when `Oc1cc2c3c(c1)CCCN3CCC2` was run?
**A.** Its GI50 is inactive: > 10 µM.

**Q.** For `NC(Cc1ccccc1)C(=O)N[C@H]1c2ccsc2/C(=N/O)[C@H]1O` (stereo partly drawn), which GI50 is on record?
**A.** Its GI50 is inactive: > 100 µM.

**Q.** How did the GI50 turn out when `CCC1(O)C(=O)OCc2c1cc1n(c2=O)Cc2c-1nc1ccccc1c2OC` (stereo not drawn) was run?
**A.** Its GI50 is active: 0.138 µM.

**Q.** How did the GI50 turn out when `O=C1C=CC2(C=C1)O[C@H](CCc1ccccc1)[C@@H](CCc1ccccc1)O2` was run?
**A.** The GI50 was inactive: > 100 µM.

**Q.** `O=C(CSc1nnc(Cc2ccccc2)o1)Nc1ccc(Cl)cc1Cl` was tested. Which GI50 did it give?
**A.** The GI50 was inactive: > 100 µM.

**Q.** Which GI50 does the source give for `CN(C)C(c1ccccc1)C(O)c1ccccc1` (stereo not drawn) here?
**A.** The GI50 was inactive: 54.1 µM.

**Q.** `C[C@H]1CC[C@H]([C@@H](C)[C@H]2[C@@H](O)C[C@H]3[C@@H]4CC[C@H]5C[C@@H](O)CC[C@]5(C)[C@H]4CC[C@]23C)NC1` was tested. Which GI50 did it give?
**A.** The GI50 was inactive: 19.6 µM.

**Q.** For `CN1c2ccccc2N(C)C2C1N(C)c1ccccc1N2C` (stereo not drawn), which GI50 is on record?
**A.** Its GI50 is inactive: 23.2 µM.

**Q.** For `NCc1cccc(O)c1O`, which GI50 is on record?
**A.** Its GI50 is inactive: > 100 µM.

**Q.** For `CCN(CC)c1ccc(/C=C2/C[N+](C)(C)C/C(=C/c3ccc(N(CC)CC)cc3)C2=O)cc1`, which GI50 is on record?
**A.** The GI50 was inactive: 6.12 µM.

**Q.** Which GI50 does the source give for `[O-][S+]1Cc2ccccc2CS1` (stereo not drawn) here?
**A.** The GI50 was inactive: > 100 µM.

**Q.** Which GI50 does the source give for `COc1cc(OC)c(OC)cc1/C=N/N=C(\N)NO` here?
**A.** Its GI50 is inactive: > 100 µM.

**Q.** For `C=CCN1CCC2(CC1)NC(=O)c1ccccc1O2`, which GI50 is on record?
**A.** The GI50 was inactive: > 100 µM.

**Q.** Which GI50 does the source give for `c1ccc2cc(OCC3CO3)c(OCC3CO3)cc2c1` (stereo not drawn) here?
**A.** The GI50 was inactive: 12.5 µM.

**Q.** `c1ccc2c(C3CCN(CCN4CCOCC4)C3)c[nH]c2c1` (stereo not drawn) was tested. Which GI50 did it give?
**A.** The GI50 was inactive: > 100 µM.

**Q.** For `O=C(c1ccc([N+](=O)[O-])cc1[N+](=O)[O-])N(/N=C/C=C/c1ccccc1)c1nnc(-c2ccccc2)c(-c2ccccc2)n1`, which GI50 is on record?
**A.** Its GI50 is inactive: 41.1 µM.

**Q.** For `C[C@@H]1[C@H](O)CC2=C(CC[C@@H](O)C2(C)C)[C@@]1(CO)CCc1ccoc1`, which GI50 is on record?
**A.** The GI50 was inactive: > 50 µM.

**Q.** `Nc1ncnc2c1ncn2[C@H]1CC[C@@H](NO)C1` was tested. Which GI50 did it give?
**A.** The GI50 was inactive: > 100 µM.

**Q.** Which GI50 does the source give for `CN(NC(=O)CCCl)C1=NCCCCN1` here?
**A.** The GI50 was inactive: > 100 µM.

**Q.** For `CC(=O)/C(=C/NC(=S)Nc1ccccc1)C(=O)Nc1ccccc1C`, which GI50 is on record?
**A.** The GI50 was inactive: > 100 µM.

**Q.** For `S=C=Nc1ccc(CSc2nc3ccccc3[nH]2)cc1`, which GI50 is on record?
**A.** Its GI50 is inactive: 17.4 µM.

**Q.** How did the GI50 turn out when `COC(=O)C(C#N)=C1c2ccccc2Oc2ccccc21` was run?
**A.** The GI50 was inactive: > 100 µM.

**Q.** Which GI50 does the source give for `COc1ccc2nc3n(c2c1)C(c1c(F)cccc1Cl)SC3` (stereo not drawn) here?
**A.** The GI50 was inactive: > 100 µM.

**Q.** How did the GI50 turn out when `CCCCCCCCCCCCCCCC(=O)OCC1OC(OC)C(NC(=O)N(CCCl)N=O)C(O)C1O` (stereo not drawn) was run?
**A.** The GI50 was inactive: 19.3 µM.

**Q.** Which GI50 does the source give for `CC(=O)CSc1c(-c2ccccc2)c(=O)n(-c2ccccc2)c(=S)n1-c1ccccc1` here?
**A.** Its GI50 is inactive: > 100 µM.

**Q.** `O=P1(c2ccccc2)c2ccccc2-c2ccccc21` was tested. Which GI50 did it give?
**A.** The GI50 was inactive: > 100 µM.

**Q.** Which GI50 does the source give for `Cc1ccc(/C=C/C(=O)c2sc(-c3nc(C)c(C(=O)/C=C/c4ccc(C)cc4)s3)nc2C)cc1` here?
**A.** The GI50 was inactive: > 100 µM.

**Q.** How did the GI50 turn out when `COC1C2c3cc4c(cc3CC(C#N)(c3ccccc32)N1C(=O)c1ccccc1)OCO4` (stereo not drawn) was run?
**A.** The GI50 was inactive: 54.7 µM.

**Q.** `CCCC(Sc1nc(N)nc2nc[nH]c12)C(=O)O` (stereo not drawn) was tested. Which GI50 did it give?
**A.** Its GI50 is inactive: > 100 µM.

**Q.** For `O=[N+]([O-])C(=C1Nc2ccccc2N1)/C(Cl)=C(/Cl)N1CCOCC1`, which GI50 is on record?
**A.** Its GI50 is inactive: > 100 µM.

**Q.** Which GI50 does the source give for `CC(=O)OCCOCNC(=S)N/N=C(\C)c1cccs1` here?
**A.** The GI50 was inactive: > 100 µM.

**Q.** For `N#C[BH2-][n+]1ccc(C(=O)NNCC(F)(F)F)cc1`, which GI50 is on record?
**A.** The GI50 was inactive: > 100 µM.

**Q.** `O=C1c2cc3c(cc2[C@@H]2C(O)[C@H]4O[C@H]4C4CCN1C42)OCO3` (stereo partly drawn) was tested. Which GI50 did it give?
**A.** Its GI50 is inactive: > 37.5 µM.

**Q.** `COC(=O)C1C2C=CC(C2)N1[C@@H](C)c1ccccc1` (stereo partly drawn) was tested. Which GI50 did it give?
**A.** The GI50 was inactive: > 100 µM.

**Q.** `[N-]=[N+]=NC(CBr)c1cn([C@H]2C[C@H](O)[C@@H](CO)O2)c(=O)[nH]c1=O` (stereo partly drawn) was tested. Which GI50 did it give?
**A.** The GI50 was inactive: > 100 µM.

**Q.** How did the GI50 turn out when `O=C(Nc1ccc2ncccc2c1)Nc1ccc2ncccc2c1` was run?
**A.** The GI50 was inactive: > 100 µM.

**Q.** With `CC1(C)CC(O)C2=C(O1)C(=O)c1ncccc1C2=O` (stereo not drawn) as the compound, how does the GI50 read?
**A.** Its GI50 is inactive: 14.5 µM.

**Q.** How did the GI50 turn out when `CCOC(=O)N1C(=O)C2C3C=CC(C2C1=O)C1C2C(=O)N(C(=O)OCC)C(=O)C2C31` (stereo not drawn) was run?
**A.** Its GI50 is inactive: > 100 µM.

**Q.** With `O=C(/C=C/c1ccccc1)Oc1ccc(C(=O)/C=C/c2ccc(Cl)cc2)cc1` as the compound, how does the GI50 read?
**A.** Its GI50 is inactive: 54.8 µM.
